From PubChem BioAssay AID743279 (National Center for Advancing Translational Sciences (NCATS), 2014)
Screen size: about 360,000 compounds; about 17,000 (4.7%) were called active. The inconclusive results got no clear call from the source; some entries with a clear call stand among them for comparison. No stated cut-off is given here; in the data, active means activity change below about -50%; inconclusive means mostly about -30% to -49%; inactive means weaker than that.

experiment: qHTS for Inhibitors of Inflammasome Signaling: IL-1-beta AlphaLISA Primary Screen; conditions: THP-1 LPS/ATP IL-1B secretion, 16 h; at 57.5 µM, stronger effect = lower value
Summary of the method: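 Secreted IL-1B measured by AlphaLISA bead assay after 16 h compound exposure of THP-1 cells; compounds (final up to 57.5 uM) added 1 h before LPS (250 ng/mL) and ATP (1.25 mM) stimulation; lower signal means less secretion.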
On the % scale 0 is the no-effect control and ±100 the full control effect.

Q: With `CC1CC(C)CN(c2ccc(C(=O)NCc3ccc4c(c3)OCO4)cc2[N+](=O)[O-])C1` (stereo not drawn) as the compound, how does the activity change read?
A: Its activity change is inconclusive: -46%.

Q: With `CCN1CCN(c2c(Cl)cccc2NC(=O)c2ccc(Br)o2)CC1` as the compound, how does the activity change read?
A: The activity change was inconclusive: -46.1%.

Q: With `COc1ccc(CNC(=O)C2(C)Cc3c(-c4ccc(C(N)=O)cc4)ccnc3O2)cc1OC` (stereo not drawn) as the compound, how does the activity change read?
A: Its activity change is inactive: -3.94%.

Q: With `C[C@@H]1CN([C@H](C)CO)S(=O)(=O)c2ccc(Br)cc2O[C@H]1CN(C)C(=O)Nc1ccccc1` as the compound, how does the activity change read?
A: The activity change was inconclusive: -32.9%.

Q: With `CC1(C(=O)NCc2cccc3ccccc23)CCN1Cc1cccc2c1OCO2` (stereo not drawn) as the compound, how does the activity change read?
A: Its activity change is inconclusive: -39.9%.

Q: Which activity change does the source give for `CC(=O)n1cc(-c2ccncc2)c2ccccc21` here?
A: Its activity change is inconclusive: -38.2%.

Q: For `O=C(c1ccc2ccccc2c1)N1CCN(c2ccc([N+](=O)[O-])c(N3CCOCC3)c2)CC1`, which activity change is on record?
A: Its activity change is inactive: 12.4%.

Q: Which activity change does the source give for `O=C(C1CCCO1)N1N=C(c2ccc(Br)cc2)CC1c1ccco1` (stereo not drawn) here?
A: The activity change was inconclusive: -43.2%.

Q: For `NNC(=O)COc1ccc(C(F)(F)F)cc1`, which activity change is on record?
A: Its activity change is inactive: -2.02%.

Q: Which activity change does the source give for `CCOc1cc(C2c3c(n[nH]c3C)C(=O)N2c2ccc(Br)cc2)ccc1O` (stereo not drawn) here?
A: Its activity change is inconclusive: -32.2%.

Q: With `CN(CC(=O)Nc1ccccc1Br)C(=O)c1ccccc1-c1nc2ccccc2s1` as the compound, how does the activity change read?
A: The activity change was inconclusive: -43.1%.

Q: For `CCOCCCNC(=O)c1cc(Sc2ccc(C)cc2)nc2ccccc12`, which activity change is on record?
A: The activity change was inconclusive: -48.7%.

Q: For `CCOC(=O)CNC(=O)CSc1ncnc2c1cnn2-c1ccc(C)cc1`, which activity change is on record?
A: Its activity change is inconclusive: -45.8%.

Q: With `CCCNC(=S)N1CCC(Cc2ccccc2)CC1` as the compound, how does the activity change read?
A: The activity change was inconclusive: -33.3%.

Q: For `C[C@]12C=CC(=O)C=C1CC[C@@H]1[C@@H]2[C@@H](O)C[C@@]2(C)[C@H]1CC[C@]2(O)C(=O)COC(=O)CCC(=O)O`, which activity change is on record?
A: The activity change was inconclusive: -45.1%.

Q: Which activity change does the source give for `CC(NC(=S)NC(=O)c1cccs1)c1ccccc1` (stereo not drawn) here?
A: Its activity change is inconclusive: -34.5%.

Q: For `CCOC(=O)c1ncccc1NC(=O)CC(=O)Nc1cccnc1C(=O)OCC`, which activity change is on record?
A: Its activity change is inconclusive: -34.7%.

Q: With `Cc1ccccc1[C@H](NC1c2ccccc2C=Cc2ccccc21)P(=O)(c1ccccc1)c1ccccc1` as the compound, how does the activity change read?
A: Its activity change is active: -74.3%.

Q: For `CN1CCN(c2ccccc2NC(=O)c2ccc(-c3ccccc3[N+](=O)[O-])o2)CC1`, which activity change is on record?
A: The activity change was inactive: 0%.

Q: With `Cc1cc(C)cc(Nc2nc(-c3ccc(S(=O)(=O)N4CCCC4)cc3)cs2)c1` as the compound, how does the activity change read?
A: The activity change was inconclusive: -37.5%.

Q: For `Cc1cc(/C=C2/SC(=S)N(c3cccc(Cl)c3)C2=O)c(C)n1-c1cccnc1`, which activity change is on record?
A: The activity change was active: -64.4%.

Q: With `Cc1ccc(N(C(=O)c2snc(C(N)=O)c2N)C(C(=O)NCC2CCCO2)c2ccc(C)o2)c(C)c1` (stereo not drawn) as the compound, how does the activity change read?
A: The activity change was inconclusive: -40.9%.

Q: Which activity change does the source give for `Cn1c(=O)cc(SCC(=O)N2CCCC2)c2ccc(Cl)cc21` here?
A: The activity change was inconclusive: -34.1%.

Q: With `Nc1cc([N+](=O)[O-])ccc1N1C(=O)CCCC1=O` as the compound, how does the activity change read?
A: The activity change was inactive: -4.87%.

Q: With `CS(=O)(=O)c1ccc(C(=O)OCc2nnc(-c3ccc(Cl)cc3)o2)cc1[N+](=O)[O-]` as the compound, how does the activity change read?
A: The activity change was active: -77.1%.

Q: With `Cc1ccc(C(CC(=O)NCc2ccco2)c2ccc(OC(C)C)cc2)cc1` (stereo not drawn) as the compound, how does the activity change read?
A: The activity change was inconclusive: -32.6%.

Q: With `Cc1ccc(C(=O)N2CCN(c3ccc(NC(=O)c4ccc(Br)o4)cc3)CC2)cc1` as the compound, how does the activity change read?
A: Its activity change is active: -86.3%.

Q: With `CC[C@]12c3[nH]c4ccccc4c3CCN1C(=O)C(CC(=O)NCCC1=CCCCC1)C[C@@H]2C(=O)N1CCN(C(=O)c2ccco2)CC1` (stereo partly drawn) as the compound, how does the activity change read?
A: Its activity change is inconclusive: -34.8%.

Q: Which activity change does the source give for `COc1cc(/C=C(\C#N)c2ccccn2)ccc1OCc1ccc(Cl)cc1` here?
A: The activity change was inactive: -11.5%.

Q: Which activity change does the source give for `CC(C)(C)N=C1NC(=NC(C)(C)C)c2ccccc21` here?
A: The activity change was inconclusive: -41.6%.

Q: For `COc1ccc(Nc2ccc(S(=O)(=O)N3CCCCCC3)cc2[N+](=O)[O-])cc1`, which activity change is on record?
A: Its activity change is inconclusive: -42.6%.

Q: Which activity change does the source give for `COc1ccc2c(c1)Sc1ccccc1N2CCN(C)C` here?
A: The activity change was inconclusive: -44.9%.

Q: For `N#Cc1ccccc1`, which activity change is on record?
A: Its activity change is inactive: 4.81%.

Q: Which activity change does the source give for `O=C(NCCCC1CCCC1)C1CCC(=O)N(Cc2ccc(Cl)cc2)C1` (stereo not drawn) here?
A: Its activity change is active: -68.6%.

Q: With `CCN(CC)C(=O)c1sc2nc(Cc3ccccc3)[nH]c(=O)c2c1C` as the compound, how does the activity change read?
A: Its activity change is inconclusive: -34.4%.

Q: For `Cc1cccc(-n2nc3c(c2NC(=O)c2ccc4c(c2)OCO4)CS(=O)(=O)C3)c1C`, which activity change is on record?
A: Its activity change is inconclusive: -33.9%.

Q: For `CCN1/C(=C/C=C/C=C/C=C/c2sc3ccccc3[n+]2CC)Sc2ccccc21`, which activity change is on record?
A: Its activity change is inconclusive: -34.4%.

Q: For `C(=C\c1nnc(-c2cccs2)o1)/c1ccccc1`, which activity change is on record?
A: The activity change was inconclusive: -46.1%.

Q: For `CC(Sc1nnc(CN2CCCC2)n1Cc1ccccc1)C(=O)Nc1ccc(F)c(F)c1F` (stereo not drawn), which activity change is on record?
A: Its activity change is inconclusive: -43.1%.

Q: Which activity change does the source give for `CN(CC(=O)NCCc1ccc(S(N)(=O)=O)cc1)CC(=O)Nc1ccc(Cl)c(C(F)(F)F)c1` here?
A: The activity change was inconclusive: -40.5%.

Q: Which activity change does the source give for `O=C(c1ccc(Cl)cc1)c1cnc(Nc2ccccc2Cl)s1` here?
A: The activity change was inconclusive: -34.4%.

Q: For `COc1ccc(NC(=O)CSc2nc(C)c3c(c2C#N)CCCC3)cc1`, which activity change is on record?
A: The activity change was inactive: -2.19%.

Q: For `CCC1C/C(=C\c2cccnc2)C(=O)/C(=C/c2cccnc2)C1` (stereo not drawn), which activity change is on record?
A: The activity change was inconclusive: -40.1%.

Q: Which activity change does the source give for `CC(C)(C)c1ccc(/C=C(\C#N)C(=O)NCCN2CCOCC2)cc1` here?
A: The activity change was inconclusive: -44.8%.

Q: With `CCN(CC(=O)Nc1cc(Cl)ccc1Cl)C(=O)c1ccc(-n2cccn2)cc1` as the compound, how does the activity change read?
A: Its activity change is inactive: -4.84%.

Q: With `COc1ccc(CNC(=O)CCCn2nc(C)c3c(C)n(-c4ccccc4)nc3c2=O)cc1` as the compound, how does the activity change read?
A: Its activity change is inconclusive: -44.9%.

Q: Which activity change does the source give for `Cc1ccnc(-n2sc3ccccc3c2=O)n1` here?
A: Its activity change is active: -95.9%.

Q: For `Cc1ccc(OCCCCNC2CCCC(C)C2C)c(C)c1` (stereo not drawn), which activity change is on record?
A: The activity change was active: -95.3%.

Q: With `CC(C)OC(=O)c1ccc(NC(=O)CSc2nc3ncccc3[nH]2)cc1` as the compound, how does the activity change read?
A: Its activity change is inconclusive: -39.3%.

Q: For `C#CCOCCOCCOCCNc1nc(N2CCN(C(=O)CCCCCCCCCCNC(=O)Cn3cc(CCCCCN)nn3)CC2)nc(N2CCN(C(=O)CCCCCCCCCCNC(=O)[C@@H](CCSC)n3cc(CCO)nn3)CC2)n1`, which activity change is on record?
A: The activity change was active: -59.6%.

Q: With `CCC(C)c1ccc(NC(=O)c2cccs2)cc1` (stereo not drawn) as the compound, how does the activity change read?
A: Its activity change is inconclusive: -43.6%.

Q: For `Cc1ccc2c(c1)nnn2C1CCN(CC(=O)Nc2ccc(F)cc2)CC1`, which activity change is on record?
A: Its activity change is inconclusive: -32.7%.

Q: With `COCCn1c(C)cc(C(=O)COC(=O)c2cncc(Br)c2)c1C` as the compound, how does the activity change read?
A: The activity change was inactive: -11.1%.
